Measured values published in PubChem BioAssay AID1240 (Sanford-Burnham Center for Chemical Genomics, 2008).
Among all 50,000 compounds or so, about 800 (1.6%) showed an effect of 50% or more. The list shows a part of the results.

target: Bcl-2-like protein 10 (Homo sapiens) (UniProt Q9HD36); assay: TR3 peptide-Bcl-B binding displacers, biochemical primary FP assay, phenotype converters (AID 1240); details: GST-Bcl-B / FITC-TR3 peptide fluorescence polarization; stronger effect = higher value; compound at 3.75 mg/L;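 note: 0% = Bcl-B with tracer peptide and DMSO and 100% = tracer peptide lacking Bcl-B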
Chain of UniProt Q9HD36 (Q9HD36 whole entry, looked up): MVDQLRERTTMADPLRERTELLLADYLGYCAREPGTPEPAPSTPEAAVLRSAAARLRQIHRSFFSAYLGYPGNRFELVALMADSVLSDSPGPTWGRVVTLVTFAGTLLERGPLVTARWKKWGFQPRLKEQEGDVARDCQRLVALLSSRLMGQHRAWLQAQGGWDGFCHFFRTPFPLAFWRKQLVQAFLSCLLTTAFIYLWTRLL

Going from `O=C(Nc1ccccc1F)c1ccccc1F` to `O=C(CC1Nc2ccccc2NC1=O)Nc1ccccc1C(F)(F)F` (stereo not given), the displacement falls from 8.1% to 5.1%.

Compared with `COc1ccc(NC(=O)Nc2ccc(Cl)c(Cl)c2)cc1OC`, `COc1ccc(NC(=O)CCCOc2ccc(Cl)cc2Cl)c(OC)c1` is lower in displacement: 1.8% for the first, -3.2% for the second.

Compared with `CN(C)c1cccc(C(=O)n2nnc3ccccc32)c1`, `Cc1cccc(C)c1NC(=O)c1cc2ccccc2o1` is lower in displacement: 9.6% for the first, 5.3% for the second.

First: Cc1ccc(S(=O)(=O)/N=C2\C=C(n3cnc4ccccc43)C(=O)c3ccccc32)cc1
Second: O=C(CN(Cc1ccccc1)S(=O)(=O)c1ccc(Br)cc1)NCc1ccccn1
The displacement of the first is lower: 7.5% for the first, 9.6% for the second.

Compared with `COc1cccc(C(=O)NNS(=O)(=O)c2ccccc2)c1`, `O=C(COc1ccccc1)NCCc1ccccc1` is higher in displacement: -0.2% for the first, 13.7% for the second.

Going from `COc1ccc(N2C(=O)NC(=O)/C(=C\c3ccc(OCc4cccc(F)c4)c(OC)c3)C2=O)cc1` to `CCOc1ccc(N2C(=O)/C(=C/c3cc(Br)c(O)c(OC)c3)C(=O)NC2=S)cc1`, the displacement falls from -11.6% to -12.9%.

Going from `O=C(CSc1nnc(SCC(=O)NC2CCCC2)s1)NC1CCCC1` to `O=C(CSc1nnnn1-c1ccccc1)C1CC1`, the displacement rises from -1.1% to 3.5%.

Compared with `CC1=NN(c2ccc(S(N)(=O)=O)cc2)C(=O)/C1=C\c1ccc(-c2cccc([N+](=O)[O-])c2)o1`, `COC(=O)C1=C(C)N=c2s/c(=C/c3ccc(-c4cccc([N+](=O)[O-])c4)o3)c(=O)n2C1c1ccc(OC(C)=O)cc1` (stereo not given) is higher in displacement: 1.9% for the first, 5.7% for the second.

Going from `COc1cc(/C=N/N=C2/NC(=O)C(CC(=O)Nc3cccc(Cl)c3Cl)S2)ccc1O` (stereo not given) to `Nc1ccc(NC(=O)c2ccc(Cl)cc2Cl)c(Cl)c1`, the displacement rises from 10.3% to 13.5%.

Compared with `COc1cc(/C=N/N2C(=O)CSC2=S)ccc1OCCOc1ccc(C(C)(C)C)cc1`, `COc1cc(/C=C2/SC(=S)N(C)C2=O)cc(Cl)c1OCCOc1ccc(C(C)(C)C)cc1` is lower in displacement: 8.2% for the first, 6.8% for the second.

Going from `C/C(=N\NS(=O)(=O)c1ccc(C)cc1)C(C)(C)CC(=O)O` to `CN(C)C(=O)/C(C#N)=C\c1ccc(-c2ccc(S(N)(=O)=O)cc2)o1`, the displacement falls from 7.8% to 3.2%.

First: O=C(CNC(=O)C(c1ccccc1)c1ccccc1)N/N=C/c1cn[nH]c1-c1ccccc1
Second: O=C(Cc1ccccc1)Nc1ccc(C(=O)Nc2nccs2)cc1
The displacement of the first is lower: -9.5% for the first, 6.5% for the second.

First: O=C1NC(=O)N(c2ccccc2)C(=O)/C1=C/c1ccc(N2CCOCC2)o1
Second: COc1ccc(/C=C2/C(=O)NN(c3cccc(Cl)c3)C2=O)cc1OC
The displacement of the first is lower: 13.9% for the first, 16.3% for the second.

First: O=C(COc1ccc(Cl)cc1)N(c1ccccc1)c1ccccc1
Second: COc1ccc(C2CC(c3ccccc3O)=NN2)cc1 (stereo not given)
The displacement of the first is higher: 16.4% for the first, -8.7% for the second.

Compared with `CCOc1ccc(NC(=O)/C=C/c2cc(Br)cs2)cc1`, `CCN(CC)c1ccc(NC(=O)c2cccc(C)c2)cc1` is higher in displacement: 10.1% for the first, 14.5% for the second.

Compared with `COC(=O)C1=C(C)N(c2ccc(C)c(C)c2)/C(=C/c2ccco2)C1=O`, `COc1cc(/C=C2/C(=O)NN(c3ccc(C)c(C)c3)C2=O)cc([N+](=O)[O-])c1O` is higher in displacement: 8.8% for the first, 13.5% for the second.

Going from `Cc1ccc(C(=O)c2oc3ccccc3c2C)cc1` to `Cc1ccc(C=Nc2ccccc2C(N)=O)cc1`, the displacement falls from 26.7% to -12.9%.

Compared with `Cc1cc(/C=C2\SC(=O)N(C)C2=O)c(C)n1-c1cccc([N+](=O)[O-])c1`, `NC1=NC(=O)C(CC(=O)Nc2cccc([N+](=O)[O-])c2)S1` (stereo not given) is lower in displacement: 12.2% for the first, -1.9% for the second.

First: Cn1/c(=N/N=C/c2ccncc2)sc2ccccc21
Second: COc1cccc(OCCOc2ccc(/C=N/n3cnnc3)cc2)c1
The displacement of the first is higher: 8.7% for the first, -3.9% for the second.

Compared with `O=C(O)C1=CNC=C(C(=O)O)C1c1ccc(O)cc1`, `COC(=O)C1=C(C)NC(=O)NC1c1cccc(Cl)c1` (stereo not given) is lower in displacement: 3.2% for the first, -4.4% for the second.

Compared with `Cc1ccc(OCC(=O)NC23CC4CC(CC(C4)C2)C3)cc1`, `Cc1ccc(OCC(=O)Nc2ccc(Cl)cn2)c(C)c1` is lower in displacement: 13.6% for the first, 8.5% for the second.

Going from `Cc1ccc(C(=O)N2CCN(c3cccc(Cl)c3)CC2)cc1C` to `CCC(=O)N1CCN(c2ccc([N+](=O)[O-])cc2F)CC1`, the displacement falls from -5.7% to -6.6%.

Compared with `Cc1ccc(C(=O)Oc2ccc(/C=C3\SC(N)=NC3=O)cc2)cc1`, `COc1ccc(C(=O)Nc2ccc3nn(-c4ccc(F)cc4)nc3c2)cc1Cl` is lower in displacement: 10.2% for the first, 8.3% for the second.

First: Cc1ccc(OCCOc2ccc(Br)cc2/C=N/n2cnnc2)cc1C
Second: COCCNC(=O)c1nn2c(C(F)(F)F)cc(-c3ccc(OC)cc3)nc2c1Cl
The displacement of the first is higher: 2.5% for the first, -2.4% for the second.

Going from `CS(=O)(=O)N(CC(=O)Nc1cccc(Br)c1)c1cccc(Cl)c1` to `O=C(COc1ccc(Cl)cc1Cl)Nc1ccc(S(=O)(=O)Nc2ncccn2)cc1`, the displacement rises from 0.3% to 11.8%.

Going from `COc1ccc(Cl)cc1N(S(=O)(=O)c1ccc(NC(C)=O)cc1)S(=O)(=O)c1ccc(NC(C)=O)cc1` to `Cc1cc([N+](=O)[O-])ccc1-c1ccc(C(=O)Nc2ccc3oc(-c4ccccc4)nc3c2)o1`, the displacement rises from 9% to 116%.

Compared with `CCOC(=O)C1=C(C)N(C)C(=O)NC1c1cc2c(cc1[N+](=O)[O-])OCO2` (stereo not given), `ONC(=Nc1ccc2c(c1)OCO2)C(=Nc1ccc2c(c1)OCO2)NO` is lower in displacement: 33.2% for the first, 21.2% for the second.

For `COc1ccc2c3c(cccc13)OCC2=O`, the displacement was 13.3%.
